# Measurements reported in article PMC6919601, “Identification of Plasmodium dipeptidyl aminopeptidase allosteric inhibitors by high throughput screening” (PLoS ONE, 2019).
# Several values for one entry are separate records, joined by “and”; a condition that tells them apart may be missing. Equal entries are not always repeated. In all, about 110,000 compounds went through this assay and about 230 (0.21%) showed an effect of 50% or more. The list shows a part of the results. Where a SMILES comes first, the peptide text is derived from it. The star is where a group is joined. Cbz = O=C(OCc1ccccc1)*
# Target: DPAP1 (Plasmodium falciparum, UniProt Q8IIJ9)
# Assay: primary screen, percent inhibition; read by cleavage of a fluorogenic dipeptide substrate; higher = more effect of the substance
# Parameters: species or system P. falciparum D10 trophozoite lysates; single well
# 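Note: 30 min substrate incubation versus DMSO and 10 µM JCP410 controls.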
# Sequence of DPAP1 (Q8IIJ9 whole entry, looked up): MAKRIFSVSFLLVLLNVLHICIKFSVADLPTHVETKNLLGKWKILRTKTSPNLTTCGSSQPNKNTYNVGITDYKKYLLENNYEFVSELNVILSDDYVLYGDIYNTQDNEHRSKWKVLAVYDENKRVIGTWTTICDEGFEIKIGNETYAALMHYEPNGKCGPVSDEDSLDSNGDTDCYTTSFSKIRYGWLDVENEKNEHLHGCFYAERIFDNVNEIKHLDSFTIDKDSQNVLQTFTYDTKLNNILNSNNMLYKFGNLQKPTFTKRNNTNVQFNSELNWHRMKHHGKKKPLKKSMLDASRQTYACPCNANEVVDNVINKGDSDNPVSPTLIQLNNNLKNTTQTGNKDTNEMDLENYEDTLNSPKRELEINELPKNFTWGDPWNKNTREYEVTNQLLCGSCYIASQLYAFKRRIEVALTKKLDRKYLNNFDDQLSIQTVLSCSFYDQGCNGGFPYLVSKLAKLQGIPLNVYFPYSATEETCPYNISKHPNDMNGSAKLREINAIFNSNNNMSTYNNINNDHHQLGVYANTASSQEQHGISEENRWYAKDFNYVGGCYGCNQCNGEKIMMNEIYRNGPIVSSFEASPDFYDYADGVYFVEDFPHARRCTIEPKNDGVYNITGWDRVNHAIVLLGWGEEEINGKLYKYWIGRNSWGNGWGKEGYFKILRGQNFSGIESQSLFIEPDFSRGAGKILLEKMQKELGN
row,Structure (SMILES),% Inhibition @ 10 uM
1,COc1ccc(Cc2nc(-c3ccc(C(F)(F)F)cc3)no2)cc1,-2.4%
2,Cc1ccc(-c2ccc(C3Nc4ccc5ccccc5c4C4=C3C(=O)CC(C)(C)C4)o2)cc1Cl (stereo not shown),-0.833%
3,CCCNC(=O)Cn1nc(CC)n2c(cc3sc(CC)cc32)c1=O,-1.7%
4,O=C(CNS(=O)(=O)c1cccs1)N1CCC2(CC1)OCCO2,7.57%
5,O=[N+]([O-])c1ccc(C23CC4CC(CC(C4)C2)C3)cc1,-1.02%
6,COc1cc(/C=C/C(=O)Nc2nnc(C3CCCCC3)s2)cc(OC)c1OC,5.12%
7,CCCCc1nc(O)c(C#N)c2c1CSC(C)(C)C2,-5.63%
8,CCCN1CCC(N(CC)Cc2ccccc2)CC1,3.44%
9,O=C(COc1ccc(Cl)cc1Br)N1CCN(c2ccccc2)CC1,-1.38% and -3.26%
10,N#CC1=C(N)N(c2c(F)cccc2F)C2=C(C(=O)CCC2)C1c1ccc2c(c1)OCO2 (stereo not shown),-6.59%
11,CC1CCN(C(=O)Cn2ncn3nc(-c4cccs4)cc3c2=O)CC1,-4.68%
12,Cc1ccc(S(=O)(=O)N(CC(=O)Nc2ccc3c(c2)OCO3)c2ccc(F)cc2)cc1,0.528%
13,COc1ccc(N2C(=O)CC(NCc3cccc(C(F)(F)F)c3)C2=O)cc1 (stereo not shown),4.03%
14,CCOc1nc2c(c(=O)n(Cc3ccc(Cl)cc3)c(=O)n2C)n1C,-2.6%
15,CC(=O)Nc1cccc(/N=C/c2c(C)nn(-c3ccc(F)cc3)c2O)c1,1.37%
16,COc1ccc(C2=CC(c3ccccc3F)n3c(nc4ccccc43)N2)cc1 (stereo not shown),4.86%
17,Cc1nc(O)c(C#N)c(C)c1CSCC(=O)Nc1ccccc1,3.92%
18,COc1ccc(CN2CCN(S(=O)(=O)c3ccc(Cl)cc3)CC2)c(OC)c1OC,-1.52%
19,COc1ccc(C2C(C#N)=C(N)N(c3ccc(F)cc3)C3=C2C(=O)CCC3)cc1CN1CCOCC1 (stereo not shown),-4.49%
20,O=S(=O)(c1ccccc1)n1nc(-c2ccccc2)nc1NCc1ccccc1,-2.91%
21,Cc1sc(NC(=O)CSc2ccccc2)c(C(N)=O)c1-c1ccccc1,18.7%
22,CCCNC(=O)CNS(=O)(=O)c1c(C)cc(C)cc1C,-0.62%
23,COc1ccccc1OCC(=O)N(Cc1ccco1)Cc1ccco1,3.88%
24,COc1ccc(CCNC(=O)c2c(C)nn(-c3ccc(F)cc3)c2-n2cccc2)c(OC)c1,-2.48%
25,CNC(=S)N(CCc1c(C)[nH]c2ccc(C)cc12)Cc1ccncc1,-2.74%

row,Structure (SMILES),% Inhibition @ 10 uM
1,CCN(C(=O)COc1ccccc1)c1ccc(C(O)(C(=O)OC)C(F)(F)F)cc1 (stereo not shown),9.68%
2,Nc1ccccc1C(=O)NC1CCCCC1,4.05%
3,CCOc1ccc2nc(N3CCC(C(=O)NCc4ccc5c(c4)OCO5)CC3)sc2c1,-3.35%
4,CCOc1cc(C2c3c(-c4cc(C)ccc4O)n[nH]c3C(=O)N2Cc2cccnc2)ccc1O (stereo not shown),-1.15%
5,Clc1ccccc1N1CCN(Cc2ccsc2)CC1,-0.192%
6,CCCc1nn(C)c(C(N)=O)c1NC(=O)c1ccccc1OCC,1.05%
7,COc1cccc(CN2CCN(Cc3ccccc3Br)CC2)c1,-5.46%
8,COc1ccccc1-c1c(Cl)nc(Cl)c(=O)n1-c1ccccc1,1.43%
9,COc1cc(OC)c2c(C)cc(N3CCN(C)CC3)nc2c1,-1.15%
10,COc1cccc(-c2cn3nc(CC(C)C)sc3n2)c1,-8.39%
11,Cn1c(=O)[nH]c(=O)c2c1nc(N1CCCCCC1)n2Cc1ccc(Cl)cc1,-1.79%
12,Cc1cc(O)c2c(C)c(CC(=O)NCCc3ccccc3F)c(=O)oc2c1,0.895%
13,CCOc1cccc(C(=O)Nc2ccc(Br)cn2)c1,-7.34%
14,CC1=NN(c2ccc(C)cc2)C(=O)CC1,-7.15%
15,O=C1CSc2nnc(-c3ccncc3)n2N1,6.01%
16,CCOC(=O)C1=C(C)N=C(SCC(=O)O)NC1c1ccccc1 (stereo not shown),1.13%
17,O=C(NC(Cc1ccccc1)C(=O)N1CCCC1C(=O)O)OCc1ccccc1 (stereo not drawn) (Cbz-Phe-Pro-OH; configuration not given here),-1.47%
18,COc1ccccc1-c1c(C)nn2c(C)c(C(C)=O)cnc12,1.12%
19,COc1ccc(C(=O)NCC2OCCc3ccccc32)cc1OC (stereo not shown),2.25%
20,CC(NC(=O)C1CCC(C)(C(=O)O)C1(C)C)c1ccccc1 (stereo not shown),1.7%
21,CCOc1ccc(C(=O)Nc2ccc(S(=O)(=O)N3CCCC3)cc2)cc1,5.14%
22,COc1ccccc1/C=C/C1=NN(c2ccc(F)cc2)C(c2ccccc2OC)C1 (stereo not shown),-1.72%
23,Cc1ccc2nc(-c3ccc(NC(=O)c4ccc(Cl)cc4Cl)cc3)sc2c1,0.467%
24,COc1cc(-c2nnc3sc(-c4ccc(C)c(C)c4)nn23)cc(OC)c1OC,29.8%
